# Laboratory results: PubChem BioAssay AID493208 (National Center for Advancing Translational Sciences (NCATS), 2011)
# Screen size: about 44,000 compounds; about 340 (0.77%) were called active. About 5% were inconclusive and are not listed. The call rests on the fitted dose curve; in most records, active means well fitted inhibition curve with a large enough effect; inconclusive means small, poorly fitted or top-dose-only effect; inactive means flat fitted curve, though single readings scatter. The list shows a part of the results.
# Test: Acumen qHTS Assay for Inhibitors of the mTORC1 Signaling Pathway in MEF (Tsc2-/-, p53-/-) Cells: Sytravon;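 further: plate controls were DMSO for no effect and rapamycin for full effect; nearly all actives have a fitted effect of over 50% in size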
# Settings: phospho-rpS6 immunofluorescence/PI, 24 h; series mostly up to 38.3 µM; activity change, negative = inhibition: at the top concentration
# Outline: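 Cell-based qHTS: Tsc2-/- p53-/- MEF, 24 h cpd, 37 °C; fix/perm, anti-phospho-S6 Alexa-488 + PI; Acumen 488 nm scan; pS6/PI ratio, % positive cells; rapamycin 7.5 nM = inhibition ref; PI count = viability.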
row,SMILES,"activity change, negative = inhibition"
1,CC1CCN(c2oc(/C=C/c3ccc(F)cc3)nc2C#N)CC1,inactive: -3.18%
2,CCOc1ccc(NC(=O)c2cc(S(=O)(=O)N3CCOCC3)ccc2F)cc1,inactive: 11.6%
3,CCCOC(=O)c1ccc(Cn2nnc3sc4c(c3c2=O)CCC(C)C4)cc1 (stereo unspecified),inactive: -0.856%
4,COc1ccccc1CNC(=O)c1cnc(N2CCCC2)nc1C,inactive: 0%
5,CCc1c(C)sc2c1CCN(C(=O)Nc1ccc(F)c(Cl)c1)C2c1ccc(F)cc1 (stereo unspecified),inactive: 0%
6,CCOc1ccc(-c2nc(Cn3c(=O)cc(C)c4c(C)nn(-c5ccc(C)cc5)c43)c(C)o2)cc1,inactive: -0.503%
7,COc1ccc(CCNC(=O)CCn2c(=O)c3ccccc3n(CC(=O)Nc3ccc(C)cc3C)c2=O)cc1OC,inactive: 2.71%
8,O=C(Nc1ccccc1)C1CCN(S(=O)(=O)c2ccc3[nH]c4c(c3c2)CCCCC4)CC1,inactive: -11.2%
9,COc1ccccc1NC(=O)C1=C(C)Nc2nc(SCc3ccccc3)nn2C1c1cccnc1 (stereo unspecified),inactive: 8.74%
10,O=C(Nc1ccc(Cl)cc1)N1CCN(c2ccc3nnc(-c4ccccc4)n3n2)CC1,inactive: -2.81%
11,CCOc1ccc(NC(=O)c2cc3c(=O)n(Cc4cccs4)ccc3nc2C)cc1,inactive: -9.57%
12,Cn1c(=O)c2c(c3ccccc31)OC(=O)CC2c1cccc(F)c1 (stereo unspecified),inactive: 0.692%
13,O=C(C1CCC(Cn2c(=O)c3sccc3n(Cc3ccccc3F)c2=O)CC1)N1CCCCC1 (stereo unspecified),inactive: -16.5%
14,COc1ccccc1N(CC(=O)NCCSCc1cccc(Cl)c1)S(C)(=O)=O,inactive: -12.9%
15,CCCCNC(=O)C1CCN(S(=O)(=O)c2ccc3c(ccn3CC)c2)CC1,inactive: -1.72%
16,Cc1cc(C)c(NC(=O)c2ncoc2-c2ccco2)c(C)c1,inactive: 0%
17,Cc1cc(C)cc(NC(=O)CSc2nnc(-c3cc4occc4n3C)n2-c2ccccc2C)c1,inactive: -5.16%
18,COc1ccc2c(CNC3CCCCCC3)c(C(=O)O)n(Cc3cccc(F)c3)c2c1,inactive: -7.27%
19,O=S(=O)(NCCc1csc2nc(-c3ccccc3)nn12)c1ccc(Cl)s1,inactive: -7.24%
20,CCN(CC)CCSc1nnc2c3cc(F)ccc3n(C)c2n1,inactive: -4.21%
21,CCOC(=O)c1c(C)[nH]c(CCC(=O)Nc2ccc(Cl)cc2C)c1C,inactive: 6.37%

row,SMILES,"activity change, negative = inhibition"
1,COC(=O)c1ccc(OC)c(CN2C(=O)N(c3ccc(C(C)=O)cc3)S(=O)(=O)c3ccccc32)c1,inactive: -3.97%
2,COc1ccc(-c2noc(CNS(=O)(=O)c3ccc(Br)cc3)n2)cc1OC,inactive: 4.09%
3,Cc1ccc(-c2noc(CN(C(=O)COc3cc(C)cc(C)c3C)C(C)C)n2)cc1,inactive: -1.52%
4,Cc1ccc(C)c(CN2C(=O)c3ccccc3S(=O)(=O)c3ccc(C(=O)NCc4ccccc4)cc32)c1,inactive: -0.13%
5,Cc1cccc(OCCCn2c(CCNC(=O)C(C)(C)C)nc3ccccc32)c1,inactive: 2.67%
6,CCCN1CCc2nc(N3CCN(c4ncccn4)CC3)ncc2C1,inactive: 3.44%
7,Cc1cccc(OCCSc2nc3ccc(NC(=O)COc4ccccc4)cc3s2)c1,inactive: -6.41%
8,CCn1cc2nc(SCc3cc(C)ccc3C)n(Cc3ccc(OC)cc3)c(=O)c2n1,inactive: 3.08%
9,Cc1ccc2c(=O)c(C(=O)c3ccc(F)cc3)cn(CC(=O)NCCc3ccccc3)c2n1,inactive: -29.1%
10,CCOCCCNC(=O)C(=O)Nc1c2c(nn1-c1ccc(OC)cc1)CSC2,inactive: -4.57%
11,CCOc1ccc(C(=O)Nc2ccc3oc(-c4cccnc4)nc3c2)cc1,inactive: -0.485%
12,COc1ccc(S(=O)(=O)Nc2cc3c(cc2NCc2ccccc2)n(C)c(=O)n3C)cc1,inactive: -1.36%
13,COc1ccc(CN(Cc2ccco2)c2cnc(S(C)(=O)=O)nc2C(=O)Nc2ccc(C)cc2C)cc1,inactive: 0.388%
14,Cc1c(C(=O)NCc2ccccc2Cl)sc2nc[nH]c(=O)c12,inactive: -2.67%
15,Cc1csc2nc(COC(=O)CNC(=O)c3ccccc3Cl)cc(=O)n12,inactive: -0.922%
16,O=C(Nc1c(C(=O)N2CCN(c3ccccc3F)CC2)oc2ccccc12)c1ccccc1F,inactive: 2.82%
17,Cc1ccc(-n2nc3c(=O)n(CCCC(=O)NCc4ccccc4F)nc(C)c3c2C)cc1,inactive: -7.08%
18,CN1CCN(CCCNC(=O)c2ccc3nc(Cc4ccccc4)oc3c2)CC1,inactive: 7.02%
19,O=C(CN1CCCN(Cc2ccc(F)cc2)S1(=O)=O)NCc1ccccc1Cl,inactive: 1.86%
20,CCn1cc(C(=O)NCc2ccc(C)cc2)c(=O)c2cc(S(=O)(=O)N3CCc4ccccc4C3)ccc21,inactive: -0.595%
21,CCC12CN3CC(CC)(CN(C1)C3c1cc(Br)ccc1OC)C2=O (stereo unspecified),inactive: 0.404%

row,SMILES,"activity change, negative = inhibition"
1,Cc1nc(-c2ccc(S(=O)(=O)N3CCN(c4ccc(F)cc4)CC3)cc2)co1,inactive: -9.23%
2,CCc1ccc(N(C)S(=O)(=O)c2ccc3[nH]cc(C(=O)NCC4CCCO4)c(=O)c3c2)cc1 (stereo unspecified),inactive: 12%
3,N#Cc1ccccc1NC(=O)c1cnc(N2CCOCC2)c2ccccc12,inactive: 0.669%
4,CCC(=O)N1CCc2cc(Br)cc(S(=O)(=O)CCC(=O)NCc3ccc(F)cc3)c21,inactive: -2.2%
5,Cc1ccc(Cn2c(CNC(=O)c3cccc(C)c3)nc3ccccc32)cc1,inactive: -6.19%
6,COc1ccccc1-c1nnc(C2CCN(C(=O)c3ccc(Cl)cc3)CC2)o1,inactive: -17.2%
7,COc1cccc2c1Oc1ncccc1N(C(=O)CCC(=O)NCc1ccc(C)cc1)C2,inactive: -0.362%
8,CCOc1ccccc1NC(=O)Cn1c2ncccc2c(=O)n1-c1ccc(C)c(C)c1,inactive: 6.52%
9,CCc1ccc2nc(N3CCN(C(=O)C4CC4)CC3)sc2c1,inactive: -13.2%
10,Cc1oc(-c2ccc(C(=O)Nc3ccccc3F)cc2)nc1COc1ccccc1,inactive: 3.2%
11,COc1ccc(C)cc1NC(=O)CSc1nc(=O)n(Cc2ccccn2)c2c1CCC2,inactive: 0.966%
12,Cc1oc2c(c(C)cc3oc(=O)c(CC(=O)NCc4ccc(F)cc4)c(C)c32)c1C,inactive: 3.27%
13,CC(=O)N1CCCc2cc(S(=O)(=O)Nc3ccc(C)c(F)c3)ccc21,inactive: 0.307%
14,CCOc1ccc(NC(=O)CN2C(=O)C3(SCC(=O)N3c3ccc(F)cc3)c3ccccc32)cc1 (stereo unspecified),inactive: 3.52%
15,COc1ccc(C2C(=O)N(C3CCC(C)CC3)CC(=O)N2CCC2=CCCCC2)cc1OC (stereo unspecified),inactive: 10.2%
16,Cc1cccc(C)c1NC(=O)CN1C(=O)c2cccc3cccc1c23,inactive: -3.4%
17,COc1ccc(CNc2oc(-c3ccc(COc4ccc(OC)cc4)o3)nc2C#N)cc1,inactive: -21.3%
18,CC(=O)N1CCc2cc(S(=O)(=O)NC(Cc3ccccc3)C(=O)Nc3ccc(Cl)cc3)ccc21 (stereo unspecified),inactive: 0.626%
19,Cc1cc(C)c(OCC(=O)N(Cc2cccc(F)c2)Cc2ccco2)c(C)c1,inactive: -3.21%
